Test results as given in PubChem BioAssay AID1466 (National Center for Advancing Translational Sciences (NCATS), 2008).
Hit rate of the full screen: of about 200,000 compounds, about 10 (0.005%) were called active. Inconclusive results, whose numbers are uncertain, are shown with a selection of clear calls. Calls follow the shape of the dose curve; as a rule, active = well fitted inhibition curve with a large enough effect; inconclusive = small, poorly fitted or top-dose-only effect, or effect the other way, or another doubt; inactive = no such curve, though single readings can be large or run the other way. Potencies of inconclusive entries are doubtful fits and often do not repeat.

Biological target: Lysosomal alpha-glucosidase (Homo sapiens) (UniProt P10253)
Assay: qHTS Assay for Inhibitors of Human alpha-Glucosidase as a Potential Chaperone Treatment of Pompe Disease;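 as to activity change, negative = inhibition: plate controls were uninhibited enzyme wells for no effect and no-enzyme background for full effect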
Details: purified human GAA, 4-MU-alpha-glucoside fluorescence; activity change, negative = inhibition: at 76.9 µM (top of the series) unless noted
Procedure, shortened: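 Read-out is 4-methylumbelliferone fluorescence (Ex 365/Em 440 nm) after NaOH/glycine stop at pH 10. Enzyme 4 nM, substrate 400 uM, pH 5.0 citrate buffer, 20 min room temperature; AC50 from Hill-equation concentration-response.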
Potency is read from the fitted curve at half-maximal effect; tags tell the direction and shape of the fitted curve.

Potency, inconclusive:
CCCN(CCC)S(=O)(=O)c1ccc(C(=O)Nc2nnc(CSC)o2)cc1 2.51 µM [inhibitor, partial curve]
COc1ccc(N2CCN(C(=O)c3cc4c(-c5cccc(OC)c5)nn(C)c4s3)CC2)cc1 50.1 µM [inhibitor, partial curve, poor fit]
CCC(/C=N/NC(=O)C1COc2ccccc2O1)CC (centres undefined) 12.6 µM [inhibitor, single point]
CCCN1Cc2cccc(C(=O)N3CCN(c4cc(Cl)ccc4C)CC3)c2C1=O 8.91 µM [inhibitor, single point]
COC(=O)c1ccccc1NC(=O)NCc1ccccc1 12.6 µM [inhibitor, partial curve, poor fit]
Fc1ccc2nc(Nc3nc4cc5c(cc4s3)OCCO5)sc2c1 25.1 µM [activator, partial curve, poor fit]
CSc1nc(N)nc(SCCS(=O)(=O)c2ccc(Cl)cc2)c1C#N 7.08 µM [inhibitor, full curve]
O=C(O)CC1S/C(=N/N=C/c2ccc(-c3ccc(Cl)cc3[N+](=O)[O-])o2)NC1=O (centres undefined) 44.7 µM [inhibitor, single point]
N#Cc1c(-c2ccccc2)cc2nc3ccccc3n2c1N 12.6 µM [activator, partial curve]
CN(C)S(=O)(=O)c1cccc(NC(=O)COC(=O)/C=C/c2ccc3c(c2)OCO3)c1 7.94 µM [inhibitor, full curve, poor fit]
COC(=O)Nc1nnc(/C=C/c2ccccc2)s1 31.6 µM [activator, partial curve]
CC(C(=O)Nc1cccnc1)C1Sc2ccccc2NC1=O (centres undefined) 10 µM [inhibitor, full curve, poor fit]
Cc1cc(C(=O)COc2ccc3ccc(=O)oc3c2)c(C)n1C 35.5 µM [activator, partial curve]
O=S(=O)(NCc1cc(-c2ccccc2)no1)c1ccc(Cl)cc1 2 µM [inhibitor, partial curve, poor fit]
Cc1cc(C(=O)NCC(=O)OCC(=O)N(C2CCCCC2)C2CCCCC2)ccc1[N+](=O)[O-] 12.6 µM [inhibitor, single point]
CN(C)S(=O)(=O)c1ccc(NC(=S)NC(=O)c2cccs2)cc1 31.6 µM [inhibitor, single point]
CC(Sc1cccc[n+]1[O-])C(=O)Nc1cccc(S(=O)(=O)N2CCOCC2)c1 (centres undefined) 6.31 µM [inhibitor, single point]
COc1ccccc1N(CC(=O)NCCC1=CCCCC1)S(=O)(=O)c1ccccc1 50.1 µM [inhibitor, single point]
CC(C)C(NC(=O)c1ccccc1F)C(=O)OCC(=O)c1ccc(F)cc1 (centres undefined) 17.8 µM [inhibitor, partial curve, poor fit]
N#Cc1cc([N+](=O)[O-])ccc1N1CCN(c2ccccc2O)CC1 35.5 µM [inhibitor, single point]
Cc1cc2cc(CNC(=O)c3ccc4c(c3)OCO4)ccc2[nH]1 56.2 µM [inhibitor, single point]
Cc1ccc(OCC(=O)N2CCN(S(=O)(=O)c3ccccc3)CC2)c([N+](=O)[O-])n1 8.91 µM [inhibitor, partial curve]
Cc1ccc(S(=O)(=O)N2CCN(C(=O)c3ccccn3)CC2)c(C)c1 35.5 µM [inhibitor, single point]
Cc1ccc(S(=O)(=O)N2CCOCC2)cc1NC(=O)c1cc2c(s1)CCC2 11.2 µM [inhibitor, single point]
Cc1noc(C)c1CSc1nnc(-c2ccccc2)n1Cc1ccco1 56.2 µM [inhibitor, single point]
Cc1ccc(C2=NN=C(NC(=O)CSc3nc(C)cc(C)n3)SC2)cc1 0.158 µM [inhibitor, full curve, poor fit]
CCOC(=O)c1sc2ncn(CC(=O)NCC3CCCO3)c(=O)c2c1C (centres undefined) 6.31 µM [inhibitor, single point]
O=C(O)c1ncn(Cc2ccccc2)c1C(=O)O 56.2 µM [inhibitor, single point]
O=C1C2C3c4ccccc4C(c4ccccc43)[C@@H]2C(=O)N1c1nc(-c2ccccc2)cs1 (some centres undefined) 0.158 µM [inhibitor, full curve, poor fit]
CCCCn1cnc2c(=S)nc(N)[nH]c21 0.1 µM [inhibitor, full curve, poor fit]
c1ccc2c(NCCCN3CCOCC3)c3ccccc3nc2c1 20 µM [activator, partial curve, poor fit]
COC(=O)Nc1ccc(S(=O)(=O)N2CCC(Cc3ccccc3)CC2)cc1 35.5 µM [inhibitor, partial curve]
COc1cccc(C(=O)Nc2ncc3c(n2)CC(c2ccc(OC)cc2OC)CC3=O)c1 (centres undefined) 28.2 µM [inhibitor, partial curve]
O=C(Nc1ccc2c(c1)OCCO2)C1CCN(c2nnnn2-c2ccccc2)CC1 4.47 µM [inhibitor, full curve]
CCC(C)NCCOc1ccc(C(C)(C)c2ccccc2)cc1 (centres undefined) 1.12 µM [activator, full curve, poor fit]
CC(C)(C)c1ccc(OCC(=O)N/N=C/c2ccc(N3CCOCC3)cc2)cc1 12.6 µM [inhibitor, single point]
COCCn1c(SCC(=O)Nc2ccc(S(=O)(=O)N3CCOCC3)cc2)nc2ccccc21 35.5 µM [inhibitor, partial curve]
CC(C)Cc1nc2oc3c(NCC4CCCO4)ncnc3c2c2c1CCC2 (centres undefined) 3.16 µM [inhibitor, single point]
CCCCCNc1nc(NCCCO)c(C#N)c2c1CN(C)CC2 1.12 µM [inhibitor, full curve]
CCOC(=O)c1cc2c(=O)n3ccccc3nc2n(CCCOC)c1=NC(=O)c1ccncc1 22.4 µM [activator, partial curve]
CC(=O)Nc1ccc2c3c(cccc13)C(=O)N(c1ccccc1)C2=O 35.5 µM [activator, partial curve]
CCOC(=O)NC(Nc1nc2ccccc2s1)(C(=O)OCC)C(F)(F)F (centres undefined) 14.1 µM [inhibitor, partial curve]
COc1ccc(Nc2nc(S(=O)(=O)c3ccc(C)cc3)c(Cl)s2)cc1 14.1 µM [inhibitor, partial curve, poor fit]
Cc1ccc(Cl)cc1N1CCN(C(=O)c2ccc(NS(=O)(=O)c3c(C)noc3C)cc2)CC1 56.2 µM [inhibitor, single point]

Potency, inactive:
CCOc1ccc(N=c2scc(-c3ccccc3)n2CCO)cc1
NNC(=O)c1cc2c(ccc3ccccc32)o1
CCCCNC(=O)CSc1nc2ccc(N3CCOCC3)cc2c(=O)n1Cc1ccc(OC)cc1
CCCCNc1cc(NC(C)=O)cc2cc(OC)c(OC)cc12
Cc1ccc(C(C[N+](=O)[O-])c2c(C)[nH]n(-c3ccccc3)c2=O)cc1 (centres undefined)
Cc1nc2ccc(C(=O)O)cc2c2c1CC(C)S2 (centres undefined)

Activity change, negative = inhibition, inconclusive:
CCOC(=O)N1CCN(C(=O)C(NS(=O)(=O)c2cccc3nsnc23)c2ccccc2)CC1 (centres undefined) -21.7% [inhibitor]
CS(=O)(=O)Nc1nnc(C2CCCC2)s1 10.5% [activator]
C=CCn1c(NCc2cc(C)ccc2O)nc2ccccc21 -18.6% [inhibitor]
CN(CC(=O)Nc1ccccc1N1CCOCC1)CC(=O)Nc1ccc(F)c(F)c1F -18.4% [inhibitor]
O=C(/C=C/c1ccc(F)cc1)NCCNC(=O)/C=C/c1ccc(F)cc1 16.5% [activator]
CN(C)CC(O)CN1C(=O)N(CN2C(=O)N(CC(O)CN(C)C)C(=O)C2(C)C)C(C)(C)C1=O (centres undefined) 15.7% [activator]
Cc1cc(N2CCCCC2)nc2ccc(NC(=O)CCC(=O)NCCC(C)C)cc12 88% [activator]
COc1ccc(OC)c(NC(=O)Cn2c(-c3ccc(Cl)cc3)noc2=O)c1 -15.1% [inhibitor]
Cc1ccc(NC(=O)CCn2nc(C)cc2C)cc1 -17.1% [inhibitor]
CN(C)CCNc1c2c(nc3nnnn13)CCCC2 16.1% [activator]
O=c1[nH]c(NCc2ccco2)nnc1Cc1ccccc1Cl 15.1% [activator]
CCOC(=O)C(=O)Nc1ccccc1C(=O)OCC 15.4% [activator]
O=Cc1ccc(OCC(=O)Nc2ccccc2-c2ccccc2)cc1 14.1% [activator]

Activity change, negative = inhibition, inactive:
COc1ccc(C2CC(=O)N3CN(c4ccc(C)c(Cl)c4)CSC3=C2C#N)cc1 (centres undefined) 3.31% [at 15.4 µM]
